Data reported in PubChem BioAssay AID2100 (National Center for Advancing Translational Sciences (NCATS), 2009).
Several values for one entry are separate records, joined by “and”; a condition that tells them apart may be missing. Equal entries are not always repeated. Screen size: about 300,000 compounds; about 1,200 (0.4%) were called active. This list was built around the results that the source calls inconclusive (neither active nor inactive); the mix of calls is not that of the screen. Calls come from the whole dose curve; as a rule, active = well fitted inhibition curve with a large enough effect; inconclusive = small, poorly fitted or top-dose-only effect, or another doubt; inactive = no such curve, though single readings can be large or run the other way. Potencies of inconclusive entries are doubtful fits and often do not repeat.

target: Lysosomal alpha-glucosidase (Homo sapiens) (UniProt P10253); test: qHTS Assay for Inhibitors and Activators of Human alpha-Glucosidase Cleavage of Glycogen; conditions: recombinant GAA, glycogen substrate, Amplex Red glucose oxidase fluorescence; activity change, negative = inhibition: at 76.4 µM (top of the series) unless noted;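 for activity change, negative = inhibition: 0% = full enzyme reaction and -100% = no-enzyme basal signal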
Method in brief: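 Recombinant human enzyme (4 nM); glycogen substrate; 37 C, 40 min, pH 5.0. Readout: coupled glucose oxidase/Amplex Red fluorescence.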
Potency is the fitted concentration of half-maximal effect.

Row | Structure (SMILES) | Potency | activity change, negative = inhibition
1 | O=[N+]([O-])c1cccc(/C=N/n2c(COc3ccccc3)n[nH]c2=S)c1 | inconclusive: 31.6 µM [inhibitor, partial curve] | 
2 | CCOc1cccc(-c2cc(=O)[nH][nH]2)c1 | inconclusive: 35.5 µM [inhibitor, partial curve] | 
3 | Cc1nc(NS(=O)(=O)c2ccccc2)sc1C(=O)NN | inconclusive: 19.8 µM [inhibitor, single point] | 
4 | N#Cc1nc(-c2cccs2)oc1NCc1ccco1 | inconclusive: 25.1 µM [inhibitor, partial curve] | 
5 | O=C1NN(c2cccc(Br)c2)C(=O)/C1=C\c1ccccc1 | inconclusive: 22.4 µM [inhibitor, partial curve] | 
6 | CC(C(O)c1ccc(O)cc1)N1CCC(Cc2ccccc2)CC1 (stereo not given) | inconclusive: 14.1 µM [inhibitor, partial curve] | 
7 | C/C(=N\NC(=S)NC(C)C)c1ccco1 | inconclusive: 7.94 µM [inhibitor, full curve] | 
8 | NS(=O)(=O)c1ccc(NC(=S)NNC(=O)c2cccs2)cc1 | inconclusive: 35.5 µM [inhibitor, single point] | 
9 | COc1ccccc1N1CCN(C(=O)c2cc3c(=O)oc4ccc(C)cc4c3s2)CC1 |  | inactive: 1.93% [at 76.3 µM]
10 | CCOc1cc(/C=N/Nc2cc(C)nc3ccc(C)cc23)ccc1O | inconclusive: 31.6 µM [inhibitor, single point] | 
11 | CC(C)CC1Nc2ccc(C(=O)NCc3ccc4c(c3)OCO4)cc2NC1=O (stereo not given) | inconclusive: 4.47 µM [inhibitor, full curve] | 
12 | Cc1ccc(OCc2n[nH]c(=S)n2-c2ccccc2)cc1C | inconclusive: 22.2 µM [inhibitor, single point] | 
13 | COc1ccc(Nc2nc(-c3sc(N)nc3C)cs2)cc1 | inconclusive: 19.8 µM [inhibitor, single point] | 
14 | O=C(Nc1sc2c(c1CN1CCOCC1)CCC2)c1ccc(F)cc1 | inconclusive: 39.8 µM [inhibitor, single point] | 
15 | Cc1cccc(NCC(=O)N/N=C\c2ccc[nH]2)c1 | inconclusive: 22.4 µM [inhibitor, single point] | 
16 | O=C1c2ccccc2NC(c2ccc(-c3ccc(Br)cc3)o2)N1O (stereo not given) | inconclusive: 22.2 µM [inhibitor, single point] | 
17 | C#Cc1ccc([C@H]2C=C(C(=O)N3CCN(Cc4ccccc4)CC3)O[C@@H](OCc3ccc(CO)cc3)C2)cc1 |  | inactive: -9.34%
18 | COC(=O)C1=C(C(=O)OC)C(c2ccc(OC)c(OC)c2)c2sc(=O)[nH]c2S1 (stereo not given) | inconclusive: 39.8 µM [inhibitor, single point] | 
19 | O=c1c2sccc2nc(SCc2cc(=O)n3cc(Cl)ccc3n2)n1Cc1ccccn1 |  | inactive: 3.39%
20 | COc1ccc(S(=O)(=O)Nc2c(NC3CCCCC3)c3ccccc3oc2=O)cc1OC | inconclusive: 15.8 µM [inhibitor, partial curve] | 
21 | COc1ccccc1NS(=O)(=O)c1cc([N+](=O)[O-])ccc1N/N=C/c1c[nH]c2ccccc12 | inconclusive: 4.97 µM [inhibitor, full curve] | 
22 | Cc1c(NC(=O)OC(C)C)sc(=S)n1C | inconclusive: 14.1 µM [inhibitor, partial curve] | 
23 | CNC(=S)NNC(=O)c1sccc1C | inconclusive: 8.84 µM [inhibitor, partial curve] | 
24 | COc1cccc(/C=C/c2ccccn2)c1O | inconclusive: 31.6 µM [inhibitor, partial curve] | 

Row | Structure (SMILES) | Potency | activity change, negative = inhibition
25 | CCOc1cc(C2CC(=O)Nc3c2c(=O)nc(SCc2cccc(Cl)c2)n3C)ccc1O (stereo not given) | inconclusive: 28.2 µM [inhibitor, partial curve, poor fit] | 
26 | CCOC(=O)N1CCN(c2ccccc2O)CC1 | active: 11.2 µM | 
27 | S=C(c1ccc(-c2ccc(Cl)cc2Cl)o1)N1CCCC1 |  | inactive: 5.41%
28 | O=C(Nc1ccc(Cl)c(Cl)c1)N(CCCN1CCOCC1)Cc1cccnc1 |  | inactive: 0.349%
29 | Cc1ccc2cc(/C=N/Nc3nc4ccccc4[nH]3)c(Cl)nc2c1 |  | inactive: 7.18%
30 | O=C(Nc1ccc2nc(SCC(=O)N3CCCC3)sc2c1)c1cccc(F)c1 |  | inactive: -3.1% [at 76.3 µM]
31 | CCc1ccc(-n2c(=O)c3ccc(C(=O)NCCc4ccccc4)cc3n(Cc3ccccc3C#N)c2=O)cc1 |  | inactive: -2.45% [at 76.3 µM]
32 | CC(C)(C)CC(C)(C)NC(=S)Nc1ccc2nc(-c3ccccn3)c(-c3ccccn3)nc2c1 | inconclusive: 39.5 µM [inhibitor, single point] | 
33 | COc1cccc(C=Nc2ccc3c(c2)OCCO3)c1O | inconclusive: 14 µM [inhibitor, partial curve] | 
34 | Cn1c(=O)[nH]c(=O)c2c1nc(N/N=C/c1ccncc1)n2Cc1ccc(F)cc1 | inconclusive: 11.2 µM [inhibitor, partial curve] | 
35 | Cc1cc(C)c(O)c(-c2cc(C(=O)Nc3c(C)n(C)n(-c4ccccc4)c3=O)[nH]n2)c1 | inconclusive: 15.8 µM [inhibitor, partial curve] | 
36 | CC(C)N=c1scc(-c2ccco2)n1/N=C/c1ccc(O)c(O)c1 | active: 7.08 µM | 
37 | O=C(NNc1ccc(C2CCCCC2)cc1)C(O)(c1ccccc1)c1cccs1 (stereo not given) | active: 20 µM | 
38 | COc1ccc2cc(C(c3nnnn3C3CCCC3)N3CCc4ccccc4C3)c(=O)[nH]c2c1 (stereo not given) |  | inactive: -1.74%
39 | OCC(O)/C=N/Nc1nc2ccccc2s1 (stereo not given) | inconclusive: 19.8 µM [inhibitor, partial curve] | 
40 | COC(=O)c1c(C)[nH]c(O)c1C=Nc1ccc(C(C)C)cc1 | inconclusive: 28 µM [inhibitor, partial curve] | 
41 | COc1ccc(Nc2n[nH]c(N)c2C(N)=O)cc1 | inconclusive: 44.7 µM [inhibitor, partial curve] | 
42 | C/C(=N\Nc1nc2ccccc2[nH]1)c1cccs1 | active: 25.1 µM | 
43 | Cc1cc(=O)[nH]c(N/N=C/c2ccc(O)c(O)c2)n1 | inconclusive: 50.1 µM [inhibitor, single point] | 
44 | O=C(CNc1ccc2ccccc2c1)NNC1=NCCC1 | inconclusive: 14 µM [inhibitor, partial curve] | 
45 | Cc1ccc(NC(=O)NNC(=O)c2sccc2-n2cccc2)cc1 | inconclusive: 22.4 µM [inhibitor, partial curve] | 
46 | CCOc1ccc(N=C/C=C/c2ccccc2)c(O)c1 | inconclusive: 31.4 µM [activator, single point] | 
47 | CCOc1cc(/C=C/c2cc(C(F)(F)F)[nH]c(=O)n2)ccc1O | active: 7.88 µM | 
48 | CCC(C)(C)n1nnnc1C(c1ccc2ncccc2c1)N1CCN(c2ccc(O)cc2)CC1 (stereo not given) | active: 1.41 µM | 

Row | Structure (SMILES) | Potency | activity change, negative = inhibition
49 | CCOC(=O)COc1cc(O)c2c(=O)cc(-c3ccccc3)oc2c1 |  | inactive: -11.3%
50 | O=C(Cc1cc(=O)[nH][nH]1)N/N=C/C(Cl)=C/c1ccccc1 | inconclusive: 24.9 µM [inhibitor, single point] and inconclusive: 22.2 µM [inhibitor, single point] | 
51 | CC1(C(=O)O)Sc2[nH]c(=O)sc2C2c3ccccc3OC(=O)C21 (stereo not given) | active: 25.1 µM | 
52 | Cc1ccc(CCNC(=O)c2ccc(CSc3nc4ccncc4n3Cc3ccc(F)cc3)cc2)cc1 |  | inactive: -10.1% [at 76.3 µM]
53 | O=C(NC(=S)Nc1ccc(O)cc1)c1ccccc1Cl | inconclusive: 31.4 µM [inhibitor, single point] | 
54 | CO/C(N)=C(\C#N)N=Cc1ccccc1Cl | inconclusive: 6.26 µM [inhibitor, partial curve] | 
55 | CC1=C(C(=O)OCc2ccccc2)C(c2cccnc2)c2c(n(C)c(=O)n(C)c2=O)N1 (stereo not given) | inconclusive: 22.2 µM [inhibitor, single point] | 
56 | COC(=O)c1ccc(CSc2nc3ccncc3n2Cc2ccc(F)cc2)cc1 |  | inactive: 14.4% [at 76.3 µM]
57 | COc1ccc(OCC(=O)NNc2nc3ccccc3s2)cc1 | inconclusive: 31.6 µM [inhibitor, partial curve] | 
58 | COc1cc(/C=N/NC(=O)C2=NNC(=O)C2C)ccc1O (stereo not given) | inconclusive: 12.6 µM [inhibitor, partial curve, poor fit] | 
59 | COc1ccc(C(=O)Oc2ccc(C3NC(=O)c4c(sc5c4CCN(C)C5)N3)cc2OC)cc1 (stereo not given) | inconclusive: 22.4 µM [inhibitor, partial curve] | 
60 | NNC(=O)c1nnn(-c2nonc2N)c1CN1CCc2ccccc2C1 | inconclusive: 4.43 µM [inhibitor, full curve] | 
61 | CCc1nnc(NC(=O)c2ccc(OC)cc2OC)s1 |  | inactive: -9.52%
62 | Cn1c(N=Nc2ccc(N3CCOCC3)cc2)[n+](C)c2ccccc21 |  | inactive: -19%
63 | CC(=O)NNC(=S)Nc1cc(S(=O)(=O)N(C)C)ccc1C | inconclusive: 7.88 µM [inhibitor, full curve, poor fit] | 
64 | Cc1cc(-c2c(C)[nH]n(-c3ccc(Cl)cc3)c2=O)n(-c2ccc(Cl)cc2)n1 | inconclusive: 28 µM [inhibitor, single point] | 
65 | C=CCn1c(SCC(C)=O)nnc1-c1cc(-c2ccccc2)sc1N | inconclusive: 39.5 µM [inhibitor, single point] | 
66 | O=C(O)c1ccc(N/N=C/c2ccc3nccnc3c2)cc1 | inconclusive: 25.1 µM [inhibitor, partial curve] | 
67 | CCOP(=O)(OCC)C(Nc1cccc(C(F)(F)F)c1)c1ccc(Br)cc1 (stereo not given) |  | inactive: -8.55%
68 | COc1cccc(CN2CCc3ccc(NC(=O)CCc4ccc(C)cc4)cc3C2)c1O | inconclusive: 14.1 µM [inhibitor, partial curve] | 
69 | COc1ccc(CCC(=O)NNC(=S)Nc2cccc(C(C)=O)c2)cc1 | inconclusive: 14.1 µM [inhibitor, partial curve] | 
70 | CN(C)S(=O)(=O)c1cccc(NC(=S)Nc2cccc3cnccc23)c1 | inconclusive: 22.4 µM [inhibitor, partial curve] | 
